From PubChem BioAssay AID504832 (National Center for Advancing Translational Sciences (NCATS), 2011)
The whole screen tested about 310,000 compounds, of which about 18,000 (5.8%) were called active. Inconclusive means that the source gave no clear call. Such entries were picked first, then a sample of the others. Calls follow the shape of the dose curve; as a rule, active = well fitted inhibition curve with a large enough effect; inconclusive = small, poorly fitted or top-dose-only effect, or another doubt; inactive = no such curve, though single readings can be large or run the other way. No potency is given beside an inconclusive call; the fits are too rough.
% is scaled to controls: 0 for no effect and ±100 for the full control effect; potency is read from the fitted curve at half-maximal effect; tags tell the direction and shape of the fitted curve.

Assay: Primary qHTS for delayed death inhibitors of the malarial parasite plastid, 48 hour incubation
Settings: P. falciparum luciferase growth in erythrocytes; series mostly up to 28.7 µM; activity change, negative = inhibition: at the top concentration
How it was run: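 Read-out is firefly luciferase luminescence from an integrated reporter in P. falciparum, so falling signal marks reduced parasite growth. Infected erythrocytes were at 2% hematocrit and 0.1% parasitemia (final) in Albumax-supplemented RPMI 1640.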
In the case of `CCn1c(SCC(=O)N(C)C)nc2cc(S(=O)(=O)N3CCOCC3)ccc21`, the “activity change, negative = inhibition” value is reported as inactive: 25.4%. For `CCN1C(=O)/C(=C\c2ccco2)C(C(=O)OC)=C1C`, the Potency was inconclusive [inhibitor, full curve, poor fit]. For `COc1cc(OC)c(S(=O)(=O)Nc2ccccc2N2CCCCC2)cc1NC(C)=O`, the Potency was active: 9.28 µM. For `CC1CCN(C(=O)CCl)CC1`, the Potency was active: 5.22 µM. In the case of `Cc1[nH]c2ccccc2c1C(=O)C(=O)NCCOc1ccccc1`, the Potency is reported as inconclusive [inhibitor, single point]. For `COc1ccccc1C(=O)NCCC(=O)NC1=NCCS1`, the “activity change, negative = inhibition” value was inactive: 13.4%. For `COc1ccc(OC)c(N(CC(=O)N2CCN(c3cc(Cl)ccc3C)CC2)S(C)(=O)=O)c1`, the Potency was inconclusive [inhibitor, single point]. With `COc1ccc(Cl)cc1NC(=O)NN1CCN(C)CC1` the Potency was inconclusive [inhibitor, partial curve]. With `Cn1c(=O)c([N+](=O)[O-])c(Cl)c2ccccc21` the “activity change, negative = inhibition” value was inactive: -7.4%. In the case of `CCOc1ccc2[nH]c(=O)c(CN(CCc3ccccc3)C(=O)N3CCOCC3)cc2c1`, the Potency is reported as inconclusive [inhibitor, single point]. With `O=C(NC(=S)N1CCCC1)c1cccc([N+](=O)[O-])c1` the “activity change, negative = inhibition” value was inactive: -16.2%. For `Cn1cccc1C(C#N)c1ncc(C(F)(F)F)cc1Cl` (stereo not given), the Potency was inconclusive [inhibitor, single point]. With `Cn1c(=N)n(CC(=O)C(C)(C)C)c2ccccc21` the Potency was inconclusive [inhibitor, single point]. With `Cc1ccc(N2CC(C(=O)Nc3nc4ccc(S(C)(=O)=O)cc4s3)CC2=O)cc1` (stereo not given) the Potency was inconclusive [inhibitor, full curve, poor fit]. For `O=C(Cc1cccs1)N1CCCC(c2nc3c(nnn3Cc3ccccc3Cl)c(=O)[nH]2)C1` (stereo not given), the Potency was active: 5.22 µM. In the case of `COc1cccc(C(=O)NCC2(c3ccccc3)CCCC2)c1`, the Potency is reported as inconclusive [inhibitor, single point]. For `CN(c1ccccc1)S(=O)(=O)c1ccc(C(=O)Nc2nnc(C3CC3)o2)cc1`, the Potency was active: 11.7 µM. In the case of `O=C(c1ccccc1)N1CCC(O)(c2ccc3c(c2)OCO3)CC1`, the Potency is reported as inconclusive [inhibitor, single point]. For `CCOc1ccc(NC(=O)CC2C(=O)N(c3ccccc3)C(=O)N2CCc2cccs2)cc1` (stereo not given), the Potency was inconclusive [inhibitor, partial curve, poor fit]. With `COc1ccc(OCC(=O)NNC(=O)C2CCN(c3ncnc4sc(C)c(C)c34)CC2)cc1` the Potency was inconclusive [inhibitor, single point].
